# Reference: PubChem BioAssay AID1508624 (National Center for Advancing Translational Sciences (NCATS), 2021)
# The campaign covered roughly 48,000 compounds. About 120 (0.25%) were called active. Not shown: some 4% with an inconclusive outcome. The call rests on the fitted dose curve; in most records, active means well fitted activation curve with a large enough effect; inconclusive means small, poorly fitted or top-dose-only effect, or another doubt; inactive means no such curve, though single readings can be large or run the other way. The list shows a part of the results.
# Test: Primary qHTS for Identification of Small Molecule Activators of Huntingtin-Antisense Promoter Activity; further: nearly all actives have a fitted effect of over 55% in size
# Settings: HEK293 HTT-AS promoter firefly luciferase reporter, 24 h; series mostly up to 57.5 µM; activity change, positive = activation: at the top concentration
# Outline: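 Firefly luciferase signal from promoter-reporter HEK293 cells was scaled between vehicle (0%) and zero RLU (-100%). Compounds were tested at final concentrations of up to 57.5 uM over 24 h at 37 degrees C. PTC124 at 50 uM final served as control inhibitor.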
row,SMILES,"activity change, positive = activation"
1,CCN(CC)S(=O)(=O)c1ccc2c(c1)N(CC(=O)Nc1cccc(C#N)c1)C(=O)CO2,inactive: -17.3%
2,CCc1nnc(NC(=O)CSc2nc3c([nH]c4ccccc43)c(=O)n2-c2ccc(Cl)cc2)s1,inactive: -23.1%
3,FC(F)(F)c1cc(-c2ccccc2)nc2cc(-c3ccccc3)nn12,inactive: 16.4%
4,NC(=O)c1cccc(-c2cccc(OC(=O)NC3CCCCC3)c2)c1,inactive: 8.42%
5,CC1CCN(C(=O)CSc2nc(-c3ccc(F)cc3)cc(C(F)(F)F)n2)CC1,inactive: -25.5%
6,CCOC(=O)c1sc(NC(=O)c2c(-c3ccccc3)c(-c3ccccc3)nn(C)c2=O)nc1C,inactive: -19%
7,Cc1cccc(-n2c(=O)c3ccccc3n(Cc3ccc(F)cc3)c2=O)c1,inactive: -24.6%
8,CCc1ccc(Nc2nc3ccccc3nc2NS(=O)(=O)c2ccccc2)cc1,inactive: -47.8%
9,Cc1cc2c(cc1S(=O)(=O)Nc1cc(C(F)(F)F)cc(C(F)(F)F)c1)OCC(=O)N2,inactive: -25.8%
10,COc1ccc(NC(=O)C2=C(C)Nc3nc(SCc4ccc(Cl)cc4)nn3C2c2cccc(OC)c2OC)cc1 (centres undefined),inactive: 2.4%
11,O=C(Cn1c(=O)nc(-c2ccccc2)c2ccccc21)Nc1ccc(Cl)cc1F,inactive: -31.2%
12,CCCCOC(=O)c1ccc(NC(=O)c2sc3nc(C)cc(C)c3c2N)cc1,inactive: -54%
13,COc1ccc(N(C)C(=O)Cn2cc(S(=O)(=O)N3CCN(c4ccccc4F)CC3)c3ccccc3c2=O)c(OC)c1,inactive: -19.1%
14,Cc1[nH]c(=O)c(C#N)cc1-c1ccc2nccn2c1,inactive
15,COc1ccc(NC2=C(c3ccc(C(F)(F)F)cc3)C(=O)c3ccccc32)cc1,inactive: 23.3%
16,COc1cccc(NC(=O)CN2C(=O)c3ccccc3Sc3ncccc32)c1,inactive: -7.72%
17,Cc1ccc(-n2nc(C)c3c(C(F)(F)F)cc(-c4cccnc4)nc32)cc1Cl,inactive: -7.35%
18,COc1ccccc1C(=O)Nc1c(C(=O)NC(C)(C)C)oc2ccccc12,inactive: -13.3%
19,CCOC(=O)c1ccc(NC(=O)c2cn3c4c(ccc(Cl)c4c2=O)OC(C)C3)cc1 (centres undefined),inactive: -6.57%
20,COc1ccc(S(=O)(=O)N2CCN(c3ccccc3OC)CC2)cc1,inactive: 2.83%

row,SMILES,"activity change, positive = activation"
1,COc1cc(OC)c(N(C)C(=O)Nc2cn(CC(C)C)c(=O)c3ccccc23)cc1Cl,inactive: -21.1%
2,CCCc1nn2c(=O)cc(COC(=O)CNC(=O)COc3ccc(C)cc3)nc2s1,inactive: -1.57%
3,Cc1ccc(-c2nc(C)c(CCNC(=O)c3ccccc3Br)s2)cc1,inactive: 21.2%
4,CCCCCCCCOc1ccc(C(=O)c2ccccc2)c(O)c1,inactive: 0.0262%
5,CNC(=O)CN1C(=O)COc2ccc(S(=O)(=O)N3CCC(C)CC3)cc21,inactive: -22.8%
6,COCCNC(=O)c1ccccc1NC(=O)c1nsc2ccccc12,inactive: 11.7%
7,Cc1ccc(-n2cnnn2)cc1S(N)(=O)=O,inactive: -4.47%
8,COc1ccc2[nH]cc(CCN=C(NC(=O)c3ccccc3OC)Nc3nc(C)cc(C)n3)c2c1,inactive: -51.3%
9,CCc1cc2c(cc3c(=O)n(CC(=O)NCCc4ccc(OC)cc4OC)nc(CC)n32)s1,inactive: -5.1%
10,COC(=O)Cn1c(SCCOc2ccccc2OC)nc2ccccc21,inactive: 4%
11,Cc1cc2[nH]c(=O)c(=O)[nH]c2cc1S(=O)(=O)N1CCN(c2cccc(Cl)c2)CC1,inactive: -7%
12,Cc1ccc(NC(=O)c2ccc(NC(=O)CCS(=O)(=O)c3cccs3)cc2)cc1F,inactive: -42.6%
13,COc1cccc(Cn2cc(C(=O)c3ccc(Cl)cc3)c(=O)c3ccccc32)c1,inactive: -24.3%
14,Cc1ccccc1Nc1c(-c2ccc(N3CCOCC3)cc2)nc2ccc(Br)cn12,inactive: 21.7%
15,CCSc1ncc(Cl)c(C(=O)Nc2cccc(Cl)c2)n1,inactive: -12.2%
16,Cc1nc2cccnc2n1C1CCN(C(=O)Nc2ccc(Cl)cc2)CC1,inactive: 10.1%
17,COC(=O)Cc1c(C)c2ccc3c(c2oc1=O)CN(Cc1ccccc1Cl)CO3,inactive: -24.4%
18,CCc1c(C)sc2c1CCN(Cc1ccccc1F)C2c1ccccc1 (centres undefined),inactive: -28.2%
19,CCOc1ccc(-c2c(C)nn3c(C)c(C(=O)NCCc4ccc(C)cc4)cnc23)cc1OCC,inactive: -18.7%
20,COc1ccc(NC(=O)C2CCN(S(=O)(=O)c3c(C)noc3/C=C/c3cccs3)CC2)cc1Cl,inactive: -17.5%

row,SMILES,"activity change, positive = activation"
1,O=C(NCCSc1c[nH]c2ccccc12)c1ccccc1Cl,inactive: -16.1%
2,Cc1cc(C)cc(NC(=O)C(Cc2ccccc2)NS(=O)(=O)c2ccc3c(c2)CCC(=O)N3)c1 (centres undefined),inactive: -23.1%
3,CCOc1ccccc1NC(=O)C(=O)Nc1ccc2nc3n(c(=O)c2c1)CCCCC3,inactive: -42.3%
4,CN(C(Cc1ccc(OS(=O)(=O)c2cccc3cnccc23)cc1)C(=O)N1CCN(c2ccccc2)CC1)S(=O)(=O)c1cccc2cnccc12 (centres undefined),inactive: -21.3%
5,O=C(c1ccccc1)N1c2nc(-c3ccco3)nn2C2(CCCCC2)[C@@H]2CCCC[C@@H]21,inactive: -16.6%
6,Cc1ccccc1OCc1ccc(-c2nc(C#N)c(N3CCN(c4cccc(Cl)c4)CC3)o2)o1,inactive: -12%
7,Cc1cc(C)c(NC(=O)C2CCCN(S(=O)(=O)c3c(C)noc3C)C2)c(C)c1 (centres undefined),inactive: -8.6%
8,Cc1ccc(CNC(=O)C(=O)NCC(c2ccc3c(c2)OCO3)N2CCOCC2)cc1 (centres undefined),inactive: -15.1%
9,CCOC(=O)C1(C)C=C(Nc2cccc(C(=O)O)c2)C(=O)N1c1ccccc1 (centres undefined),inactive: 19.2%
10,Cc1ccc2c(=O)cc(C(=O)Nc3c(C)n(C)n(-c4ccccc4)c3=O)oc2c1,"inactive: 5.51% [at 11.5 µM, percent change from vehicle, -100% = no light]"
11,COc1cc(NC(=O)CSc2nc3nc(C)c(Cc4ccccc4Cl)c(C)n3n2)cc(OC)c1,inactive: -2.29%
12,COc1ccccc1N1CCN(C(=O)C2CCCN(S(=O)(=O)c3ccc4c(c3)CCCN4C(C)=O)C2)CC1 (centres undefined),inactive: -27.7%
13,CCCOc1ccc(CNC(=O)C(NS(=O)(=O)c2cccs2)C(C)C)cc1 (centres undefined),inactive: 9.96%
14,COc1cc(Cl)c(C)cc1NC(=O)c1cnc(N2CCCCC2)c2ccccc12,inactive: -20.1%
15,COc1cc2nc(SCc3ccc(C)cc3)n3nc(CCn4nc(C)cc4C)nc3c2cc1OC,inactive: -0.491%
16,CC(C)Cn1c(-c2cccc(Br)c2)nc2ccccc21,inactive: -34.6%
17,COC(=O)C(CCSC)Nc1ncnc2onc(-c3ccc(F)cc3)c12 (centres undefined),inactive: -10.3%
18,O=C(CSc1nc(-c2cccc(F)c2)[nH]c1-c1ccccc1)Nc1ccc2c(c1)OCO2,inactive: -24.1%
19,O=C(CSc1nc2ccccc2nc1Cc1ccc(Cl)cc1)N1CCN(c2ccccc2)CC1,inactive: -14.8%
